# Hit rate of the full screen: of about 310,000 compounds, about 14,000 (4.5%) showed an effect of 50% or more. The effect is printed as a negative number. Some of the results follow.
# Biological target: human ether-à-go-go-related gene (hERG) potassium channel (human, UniProt Q12809)
# Assay: primary screen, population patch clamp on CHO cells stably expressing hERG
# 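Also: peak tail current of the secondary pulse compared with the same well before compound.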
# Chain of human ether-à-go-go-related gene (hERG) potassium channel (Q12809 whole entry, looked up): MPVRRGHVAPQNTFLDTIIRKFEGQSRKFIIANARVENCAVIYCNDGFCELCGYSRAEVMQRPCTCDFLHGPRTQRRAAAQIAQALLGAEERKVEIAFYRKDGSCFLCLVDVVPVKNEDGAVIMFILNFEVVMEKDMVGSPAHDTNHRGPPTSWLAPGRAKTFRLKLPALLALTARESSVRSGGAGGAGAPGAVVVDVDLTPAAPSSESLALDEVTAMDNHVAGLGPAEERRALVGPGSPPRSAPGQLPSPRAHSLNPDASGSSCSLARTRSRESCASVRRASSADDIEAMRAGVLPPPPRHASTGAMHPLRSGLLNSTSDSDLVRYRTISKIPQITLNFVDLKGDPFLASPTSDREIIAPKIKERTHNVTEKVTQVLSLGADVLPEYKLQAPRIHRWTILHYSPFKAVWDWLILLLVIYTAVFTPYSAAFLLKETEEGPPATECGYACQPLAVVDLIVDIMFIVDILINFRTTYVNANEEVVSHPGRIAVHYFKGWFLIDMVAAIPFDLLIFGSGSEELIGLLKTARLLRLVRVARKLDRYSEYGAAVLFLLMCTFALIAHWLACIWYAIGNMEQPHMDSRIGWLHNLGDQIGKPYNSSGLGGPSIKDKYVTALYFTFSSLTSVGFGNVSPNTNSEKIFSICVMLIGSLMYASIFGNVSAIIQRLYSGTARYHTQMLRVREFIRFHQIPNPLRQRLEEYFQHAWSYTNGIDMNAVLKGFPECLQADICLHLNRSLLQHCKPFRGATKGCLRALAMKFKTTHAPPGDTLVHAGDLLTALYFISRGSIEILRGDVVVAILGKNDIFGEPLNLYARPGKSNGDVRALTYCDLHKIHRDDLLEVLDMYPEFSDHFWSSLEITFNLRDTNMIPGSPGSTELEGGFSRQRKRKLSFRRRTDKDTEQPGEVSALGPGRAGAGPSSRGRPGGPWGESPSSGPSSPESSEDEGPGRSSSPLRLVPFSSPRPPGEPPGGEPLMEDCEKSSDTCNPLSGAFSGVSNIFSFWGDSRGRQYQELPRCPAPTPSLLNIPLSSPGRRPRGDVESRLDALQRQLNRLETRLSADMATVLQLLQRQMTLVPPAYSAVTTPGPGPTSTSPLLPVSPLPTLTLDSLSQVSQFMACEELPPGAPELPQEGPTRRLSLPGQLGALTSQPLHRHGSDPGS
row,SMILES,"hERG current change (%, negative = inhibition) at 10uM [%]"
1,CCOC(=O)c1cnc2ccccc2c1NCCc1ccc(OC)c(OC)c1,-78.2
2,O=C(CSc1ccc(F)cc1)Nc1ccc(C2SCCS2)cc1,-4.16
3,Cc1nnc(C)n1/N=C/c1ccc(C(=O)O)cc1,9.36
4,CC(C)c1cc(N2CCOCC2)n2ncc(-c3ccccc3)c2n1,-16.1
5,O=C(NCc1ccc(C(F)(F)F)cc1)C1CC(c2ccccc2C(F)(F)F)=NO1 (centres unmarked),-13.5
6,CCOc1ccc(N(C)S(=O)(=O)c2cnc[nH]2)cc1,4.69
7,Cc1ccc(C(=O)Nc2cccc(C(F)(F)F)c2)cc1NC(=O)c1nccn1C,1.96
8,Cc1noc(C)c1C(=O)NC1=NCCS1,-2.48
9,O=C(CN1CCNCC1)Nc1ccc(Oc2ccccc2)cc1,-17.9
10,COCCn1c(C(=O)N2CCCC2)cc2c1C[C@H]1CN(C(=O)c3ccccc3)[C@@](Cc3ccc(F)cc3)(C(=O)OC)[C@@H]21,-39.3
11,CCOC(=O)c1c(C)[nH]c(C(=O)COC(=O)CNC(=O)c2ccc(Cl)cc2Cl)c1C,19.8
12,N#Cc1cn(Cc2ccccc2)c2ccccc12,5.51
13,CCOc1ccc(-c2nnc(-c3ccncc3)o2)cc1OCC,-3.15
14,CCS(=O)(=O)NCc1cn2ccsc2n1,2.7
15,CC(NC(=O)CN(C)Cc1cccc(F)c1)c1ccccc1 (centres unmarked),7.3
16,CCOCCCn1c(SCC(=O)Nc2ccc(OC)cc2)nc2ccccc2c1=O,-11
17,CC(C)=CCN1CCN(Cc2ccc(Sc3nncn3C)o2)CC1CCO (centres unmarked),29.1
18,CCn1c(=O)n(CC(=O)N2CCC3(CC2)OCCO3)c(=O)c2ccccc21,2.49
19,CCOC(=O)c1cc(NC(=O)Nc2ccc(OC)c(OC)c2)c(C)nc1C,20.2
20,COC(=O)CNC(=O)C1CCN(c2nc(C)cc(C)n2)CC1,11.3
21,Cc1ccc(C(=O)NCC(=O)N2CCC3(CC2)NCCc2[nH]cnc23)cc1C,14.7
22,COc1ccc(C(c2nnnn2Cc2ccccc2)N2CCN(c3ccccc3)CC2)cc1.Cl (centres unmarked),-6.94
23,CC(NC(=O)c1cccc(C(F)(F)F)c1)C(c1ccccc1)N1CCOCC1 (centres unmarked),-4.35

row,SMILES,"hERG current change (%, negative = inhibition) at 10uM [%]"
1,CN(C)c1ccc(/C=C2\N=C(c3ccc(Cl)c([N+](=O)[O-])c3)NC2=O)cc1,15.1
2,CCCCNC(=O)N1c2ccccc2CC1C (centres unmarked),5.16
3,CCOC(=O)c1ccc(NS(=O)(=O)c2ccc(SC)cc2)cc1,0.723
4,O=C(Nc1ccccc1Cl)C(=O)c1cn(CC(=O)N2CCOCC2)c2ccccc12,5.59
5,O=C(COc1ccc(Cl)cc1Cl)NN1C(=O)C2C3C=CC([C@@H]2C1=O)C31CC1 (some centres unmarked),7.44
6,CCOC(=O)C1(Cc2ccccc2C(F)(F)F)CCN(C2CCN(C(C)=O)CC2)CC1,-18.6
7,Cc1ccc(CNC(=O)COC(=O)c2nc(-c3ccccc3)oc2C)cc1,-10.2
8,CCOCc1cc(C2NC(=O)NC(C)=C2C(=O)OCC)ccc1OC (centres unmarked),-1.75
9,O=C(O)c1ccccc1C(=O)OCCCCOC(=O)c1ccccc1C(=O)O,0.16
10,CC(=O)N1c2ccccc2C2CCCC[C@H]21 (some centres unmarked),6.04
11,CC(=O)Nc1sc(NC(=O)c2ccccc2)nc1-c1cccs1,0.00438
12,COC(=O)c1cc(OC)c(OC)cc1NC(=O)c1ccc(OC)cc1,-4.87
13,CC(C)N(C(=O)CSc1n[nH]c(=O)n1CCc1ccccc1)C(C)C,10.8
14,CC(=O)Nc1nnc(SCC(=O)NC(C)(C)C)s1,0.0786
15,COc1ccc(-c2nc3ccncc3[nH]2)cc1OC.Cl,14.9
16,COc1ccc(OC)c(C(C)NC(=O)C23CC4CC(CC(C4)C2)C3)c1 (centres unmarked),1.42
17,Cc1cc(C)nc(CCNC(=O)c2cc(COc3c(F)cccc3F)on2)n1,4.72
18,CCOC(=O)N1CCC(N(CCN(C)C)C(=S)Nc2cccc(C)c2)CC1,4.81
19,O=C(Oc1ccc(OC(=O)N2CCCCC2)cc1)N1CCCCC1,17.4
20,C=CCOc1ccc(/C=C/C(=O)OCC(=O)NC2CCCCCC2)cc1,3.69
21,CCCCCCCNC(=O)c1cc(-c2ccncc2)nc2ccccc12,7.84
22,CCc1n[nH]c(=S)n1/N=C/c1ccccc1OCc1ccc(Cl)cc1,21.5
23,O=C(CSc1cccc2cccc(Cl)c12)NCc1cccs1,3.59

row,SMILES,"hERG current change (%, negative = inhibition) at 10uM [%]"
1,Cc1cccc(C)c1NC(=S)N(CCCN1CCOCC1)Cc1cccnc1,-3.7
2,CCOc1ccc(S(=O)(=O)N2CCOCC2)cc1NC(=O)C1CSC2(C)CCC(=O)N12 (centres unmarked),-13.2
3,Cc1cnc(C(=O)OCC(=O)c2c(N)n(CC(C)C)c(=O)n(C)c2=O)cn1,-8.35
4,CC(C)CN(C(=O)COC(=O)c1cccn1C)c1c(N)n(Cc2ccccc2)c(=O)[nH]c1=O,16.4
5,COc1ccccc1/C=N/Nc1nc(C)c(C(C)=O)s1,5
6,COCCN(C(=O)COC(=O)c1ccc(C=O)cc1)c1c(N)n(Cc2ccccc2)c(=O)[nH]c1=O,4.38
7,CCN(CC)C(=S)SCC(=O)Nc1ccc(F)cc1,-5.4
8,O=C(CNC(=O)c1ccc(Cl)c([N+](=O)[O-])c1)OC1CCCCC1=O (centres unmarked),3.96
9,O=C(CSc1nnc(COc2ccc(F)cc2)o1)N1c2ccccc2CCc2ccccc21,6.64
10,COc1ccccc1NC(=O)Cn1nnc(C(=O)Nc2ccccc2)c1N,-2.88
11,COc1cc(OC)cc(N2C(=O)CC(N3CCC(C(=O)N4CCCCC4)CC3)C2=O)c1 (centres unmarked),24.4
12,CCOc1ccc(NC(=O)CCC(=O)NNC(=O)COc2ccc(C)cc2Br)cc1,16.5
13,O=S(=O)(Nc1cccc(S(=O)(=O)N2CCCC2)c1)c1ccc(Cl)s1,-14.2
14,Cc1ccccc1NC(=O)c1ccc([N+](=O)[O-])o1,11.5
15,CCOc1ccc(C(C(=O)NC2CCCC2)N(Cc2ccccc2)C(=O)c2nsc(Cl)c2Cl)cc1 (centres unmarked),4.9
16,Cc1ccc(/C=N/NC(=O)c2ccccn2)s1,15.4
17,Cc1ccccc1NC(=O)c1cccc(N2C(=O)C3C4CCC(C4)C3C2=O)c1 (centres unmarked),6.28
18,Cc1oc(S(=O)(=O)N2CCCCC2)cc1NC(=O)Nc1ccc(F)cc1,3.43
19,Cl.Cn1nnnc1SCCNCc1cccnc1,4.95
20,COC(=O)c1ccc(NCC(=O)c2ccccc2)cc1,9.29
21,CCCN1CCN(CC(O)COC(c2ccc(OC)cc2)c2ccc(OC)cc2)CC1.O=C(O)C(=O)O (centres unmarked),-30.2
22,C=CCn1c(SCC(=O)NCc2ccco2)nc2sc3c(c2c1=O)CCCC3,9.48
23,CC(=O)N1CCCc2cc(S(=O)(=O)Nc3ccccc3C)ccc21,25.1

row,SMILES,"hERG current change (%, negative = inhibition) at 10uM [%]"
1,c1cncc(C(c2nnnn2C2CCCC2)N2CCCC2)c1 (centres unmarked),-23.9
2,O=C(C1=COCCO1)N1CCN(c2nc3ccc([N+](=O)[O-])cc3s2)CC1,-37.2
3,Cc1ccc(OCCCC(=O)Nc2nc3ccccc3[nH]2)cc1,18.4
4,COc1ccc(-c2cc(C)no2)cc1S(=O)(=O)NCC(C)c1ccccc1 (centres unmarked),4.35
5,Cc1ccccc1C(=O)Nc1ccccc1-n1cccc1,16
6,CN(C)/C=N/c1cc(=O)n(C)c(=O)n1Cc1ccccc1,8.39
7,Cc1ccccc1C(=O)NNC(=O)c1ccc2nc[nH]c2c1,4.53
8,COc1nc(N/N=C/c2ccccc2F)nc(N2CCCCC2)n1,-15.6
9,Cc1ccc(C2=NOC(=O)/C2=C\c2ccccc2)cc1,7.86
10,CC(=O)Nc1ccc(C2=CC(=O)C[C@H](c3ccc(Cl)cc3)C2)cc1,1.7
11,CC1(C)CC(=O)C(C2C3=C(CC(C)(C)CC3=O)Oc3ccccc32)C(=O)C1 (centres unmarked),18.9
12,O=C(Nc1cccc(Cl)c1)N1CCN2C(=O)c3ccccc3C12c1ccccc1 (centres unmarked),-24.3
13,COc1cc(NC(=O)N[C@@H](CCSC)C(=O)O)cc(OC)c1,6.91
14,O=C(CSCc1cccc(Br)c1)N1CCOCC1,8.02
15,COc1ccccc1N1CCN(C2CCC(C)CC2)CC1 (centres unmarked),4.87
16,COc1ccc(NC(=O)COc2cccc3c2CCN(Cc2cccnc2)C3=O)c(OC)c1,-8.62
17,COc1ccc(NC(=O)C2CCCN2C(=O)NC2CCCCC2)cc1OC (centres unmarked),-4.85
18,CC1CCC(NC(=O)c2ccc3nc[nH]c3c2)CC1 (centres unmarked),-7.76
19,Cc1ccc(SCc2ccc(C(=O)N3CCCCC3)cc2)cc1,1.58
20,O=c1[nH]c(C2CCCN(S(=O)(=O)c3ccc(F)cc3)C2)nc2c1nnn2Cc1ccccc1 (centres unmarked),4.19

# Reference: publication PMC4336329 (PLoS ONE, 2015)
